Test results published in PubChem BioAssay AID686978 (National Center for Advancing Translational Sciences (NCATS), 2013).
Values joined by “and” are separate entries in the source; they are usually repeats but may differ in a detail not shown here. Equal entries are not always repeated. Hit rate of the full screen: of about 420,000 compounds, about 64,000 (15%) were called active. The inconclusive results got no clear call from the source; some entries with a clear call stand among them for comparison. The call rests on the fitted dose curve; in most records, active means well fitted inhibition curve with a large enough effect; inconclusive means small, poorly fitted or top-dose-only effect; inactive means flat fitted curve, though single readings scatter. Potencies of inconclusive entries are doubtful fits and often do not repeat.

test: qHTS for Inhibitors of human tyrosyl-DNA phosphodiesterase 1 (TDP1): qHTS in cells in absence of CPT; conditions: DT40 Tdp1-/- hTDP1 cells, no CPT, ATP luminescence, 48 h; activity change, negative = growth inhibition: at 46.2 µM (top of the series); further: nearly all actives have a fitted effect of over 55% in size
How it was run: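 Cells were dispensed at 400 per well, compounds added by pin tool, plates incubated ≥48 hr at 37 °C, then CellTiter-Glo added for 30 min at room temperature before luminescence reading. Line: DT40 Tdp1-/- complemented with hTDP1; camptothecin omitted.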
On the % scale 0 is the no-effect control and ±100 the full control effect; potency means the concentration at half of the fitted maximal effect; tags describe the fitted curve by direction and shape.

| SMILES | Potency | activity change, negative = growth inhibition |
| --- | --- | --- |
| Cc1cc(C)cc(NC(=O)c2cc3c(=O)n(Cc4ccco4)ccc3nc2C)c1 | inconclusive: 25.9 µM [inhibitor, single point] |  |
| CC(=O)Nc1cccc(OCCCNC(=O)c2cccc3ccccc23)c1 | inconclusive: 18.4 µM [inhibitor, partial curve] |  |
| CC(=O)Nc1cccc(-c2csc(C(C)(O)c3cccc(F)c3)n2)c1 (stereo unspecified) | inconclusive: 23.1 µM [inhibitor, single point] |  |
| CC(=O)c1cccc(NC(=O)c2csc3c2CCCCC3)c1 | inconclusive: 16.4 µM [inhibitor, single point] |  |
| COc1ccccc1-c1cc(C(F)(F)F)nc(NCc2cccs2)n1 | inconclusive: 16.4 µM [inhibitor, single point] |  |
| CC(=O)Nc1cccc(C(=O)N2CCN(S(=O)(=O)c3ccc(C4CCCCC4)cc3)CC2)c1 | active: 23.1 µM |  |
| O=S(=O)(NCC1CCCO1)c1ccc(S(=O)(=O)N(Cc2ccc(F)cc2)Cc2ccccn2)cc1 (stereo unspecified) |  | inconclusive: -33.7% [inhibitor] |
| COc1cc(-c2nc(CN3CCN(CC(C)C)C(=O)[C@@H]3C)c(C)o2)ccc1F | inconclusive: 29.1 µM [inhibitor, single point] |  |
| CN1CCc2c(sc3c2c(=O)n(-c2ccccc2)c2n[nH]c(=S)n32)C1 | inactive |  |
| CCc1nnc(NC(=O)CSc2nc(-c3ccccc3)cc(-c3ccc(OC)cc3)c2C#N)s1 | active: 20.6 µM |  |
| O=C(CSCc1c(Cl)cccc1Cl)N1CCOCC1 | inactive |  |
| N#Cc1c(NC(=O)c2cccnc2)sc2c1CCC2 | inconclusive: 20.6 µM [inhibitor, single point] |  |
| Cc1ccc(S(=O)(=O)N2CCCCC2)cc1C(=O)Nc1ccc(S(=O)(=O)Nc2ncccn2)cc1 | inactive |  |
| Cc1cc(-c2ccc(C)c(S(=O)(=O)NCCCN3CCN(c4ccccc4)CC3)c2)on1 | active: 23.1 µM |  |
| Cc1nc2c(-c3ccc(F)cc3)c(C)nn2c(C)c1CCC(=O)NCc1cccc(Cl)c1 | inconclusive: 14.6 µM [inhibitor, partial curve] |  |
| CN(C)c1ccc(/C=N/NC(=O)c2nnn(-c3nonc3N)c2CN(C)c2ccccc2)cc1 | inactive |  |
| Cc1cccc(NC(=S)NCc2ccc3c(c2)cc(C)n3C)c1C | active: 14.6 µM |  |
| CCOc1ccc(CNC23CN4CN(CN(C4)C2)C3)cc1 | inconclusive: 20.6 µM [inhibitor, partial curve] |  |
| COc1ccc2c(CC(=O)Nc3ncc(C)s3)coc2c1 | inconclusive: 16.4 µM [inhibitor, partial curve] |  |
| CCc1nnc(NC(=O)CSc2nc(C)cs2)s1 | inactive |  |
| Cc1c(CCC(=O)NCCCCCC(=O)O)c(=O)oc2cc3occ(-c4ccccc4)c3cc12 | inconclusive: 29.1 µM [inhibitor, single point] |  |
| Cc1ccc(S(=O)(=O)NCCn2nc(C)nc2C)cc1 | inactive |  |
| CCC(Oc1ccc2c(=O)c(-c3ccccc3OC)coc2c1)C(=O)OCc1ccccc1 (stereo unspecified) | inconclusive: 16.4 µM [inhibitor, single point] |  |

| SMILES | Potency | activity change, negative = growth inhibition |
| --- | --- | --- |
| COC(=O)C1(Cc2cc(-c3cccnc3)no2)CCN(C(=O)OC(C)(C)C)CC1 | inconclusive: 18.4 µM [inhibitor, partial curve, poor fit] |  |
| CCOc1ccc(-c2nnc3ccc(SC(C)C)nn23)cc1 | inconclusive: 16.4 µM [inhibitor, single point] |  |
| COc1cc(OC)c(OC)cc1/C=N/Nc1ncnc2c1[nH]c1ccccc12 | inconclusive: 2.31 µM [inhibitor, full curve] |  |
| Cc1ccc(-n2c(SCC(N)=O)nnc2-c2cccnc2)c(C)c1 | inactive |  |
| COc1ccccc1C(=O)Nc1ccc(NC(=O)c2ccco2)c(C)c1 | inconclusive: 13 µM [inhibitor, partial curve] |  |
| O=C(CCN1C(=O)c2ccccc2C1=O)Nc1ccccn1 | inconclusive: 6.51 µM [inhibitor, full curve] |  |
| CCOc1ccccc1NC(=O)NS(=O)(=O)c1ccc(C)cc1 | inactive |  |
| O=C(NCCc1ccccc1)C1C(=O)Nc2ccccc2C(=O)N1C1CCCCC1 (stereo unspecified) | inactive |  |
| O=C(c1ccccn1)N1N=C2/C(=C/c3ccccc3)CCCC2C1c1ccccc1 (stereo unspecified) | inconclusive: 16.4 µM [inhibitor, single point] |  |
| Cc1cc2c(cc1S(=O)(=O)CCC(=O)N(C)Cc1ccccc1)OCC(=O)N2 | inactive |  |
| CCCCn1c(-c2cccs2)nc2nc3ccccc3nc21 | active: 23.1 µM |  |
| O=C(NCCOc1ccccc1-c1ccccc1)c1ccco1 | inconclusive: 25.9 µM [inhibitor, partial curve] |  |
| CC(=O)Nc1ccc(S(=O)(=O)N/N=C/c2ccc(C)o2)cc1 | inactive |  |
| CCCCn1c(N)c(N(CCC(C)C)C(=O)CC2CCCCC2)c(=O)[nH]c1=O | inactive |  |
| CCN1C(=O)/C(=C/c2cccs2)SC1=Nc1ccc(OC)cc1 | active: 4.11 µM |  |
| Cc1cccc(NC(=O)CSc2c3c(nc4ccccc24)CCC3)n1 | inconclusive: 29.1 µM [inhibitor, single point] |  |
| CCC(C)Sc1cccc(-c2nc3cc(C)ccn3c2NCc2ccccc2)c1 (stereo unspecified) | inconclusive: 33.2 µM [inhibitor, single point] and inconclusive: 16.4 µM [inhibitor, single point] |  |
| O=C1CC(c2ccccc2)=NN1c1ccccc1 | active: 14.6 µM |  |
| CN(C)c1ccc(-c2nc(NCCc3cnc[nH]3)c3ccccc3n2)cc1 | inconclusive: 25.9 µM [inhibitor, single point] |  |
| Cc1ccc(-n2ncc3c(NNC(=O)c4ccco4)ncnc32)cc1C | inconclusive: 29.1 µM [inhibitor, single point] |  |
| O=C(NCCn1cccn1)C1CCC(=O)N(CCc2ccccc2)C1 (stereo unspecified) | inactive |  |
| COc1ccc(-c2nc(CN3CCCCC3c3cccnc3)c(C)o2)c(F)c1 (stereo unspecified) | inconclusive: 20.6 µM [inhibitor, single point] |  |
| O=C(COc1cccc(OC(F)F)c1)Nc1ccc(SC(F)F)cc1 | inconclusive: 23.1 µM [inhibitor, partial curve] |  |
